PubChem BioAssay AID504706 (National Center for Advancing Translational Sciences (NCATS), 2011)
About 200 (0.062%) of roughly 320,000 compounds were called active. The inconclusive results got no clear call from the source; some entries with a clear call stand among them for comparison. The call rests on the fitted dose curve; in most records, active means well fitted activation curve with a large enough effect; inconclusive means small, poorly fitted or top-dose-only effect; inactive means no such curve, though single readings can be large or run the other way. No potency is given beside an inconclusive call; the fits are too rough.

assay: qHTS assay for re-activators of p53 using a Luc reporter; settings: H1299 p53-A138V BP100-luciferase reporter, luminescence, 24 h; series mostly up to 92.2 µM; further: nearly all actives have a fitted effect of over 45% in size
Method in brief: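 p53-null H1299 cells stably carrying temperature-sensitive p53-A138V and a BP100-luciferase reporter were pinned with compounds (4-point, 1:5 series) and held 24 hrs at 37 deg C. Luminescence was read 10 min after detection reagent.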
Potency means the concentration at half of the fitted maximal effect; tags describe the fitted curve by direction and shape.

Row | SMILES | Potency
1 | COC(=O)c1cccc(CSc2nnc(C)s2)c1 | inconclusive [activator, single point]
2 | COc1ccccc1C(=O)Nc1ccc(OCC(=O)N2CC(C)OC(C)C2)cc1 (centres undefined) | inconclusive [activator, single point]
3 | O=C(COc1ccc2c(c1)oc(=O)c1ccccc12)NCCCN1CCOCC1 | inactive
4 | O=C(CN1CCCCCC1)Nc1ccc(Br)cc1[N+](=O)[O-] | inconclusive [activator, partial curve, poor fit]
5 | C=CCn1c(=N)c(S(=O)(=O)c2ccc(C)c(C)c2)cc2c(=O)n3ccccc3nc21 | inactive
6 | CCOC(=O)c1cnc2ccccc2c1Nc1ccc2c(c1)OCCO2 | inconclusive [activator, full curve, poor fit]
7 | O=C(O)c1cc(S(=O)(=O)O)cc(Nc2c3ccccc3nc3ccccc23)c1O | inactive
8 | O=C(CSc1nc2ccccc2c(=O)n1CC1CCCO1)NCC1CCCO1 (centres undefined) | inactive
9 | COC(=O)CC1=NN(c2nc3ccccc3s2)C(=O)/C1=C/N(C)C | inactive
10 | Cc1nc2ccccn2c1C(=O)Nc1ccc2c(c1)OCCO2 | inconclusive [activator, full curve, poor fit]
11 | CC(C)C(=O)Nc1ccc(NC(=O)c2cc3ccccc3o2)cc1 | inconclusive [activator, full curve, poor fit]
12 | N/C(=N\OC(=O)c1cccc2ccccc12)c1ccccn1 | inconclusive [activator, full curve, poor fit]
13 | CCOc1cc(N(CC)CC)ccc1/C=C(/C#N)c1nc2ccccc2[nH]1 | inactive
14 | CCOC(=O)C1CCN(C(=O)c2cc3cc4cc(OC)ccc4nc3o2)CC1 | inconclusive [activator, partial curve, poor fit]
15 | N=c1c(C(=O)NCc2ccco2)cc2c(=O)n3ccccc3nc2n1Cc1ccccc1 | inactive
16 | COC(=O)C1CCN(C(=O)CSc2ccccc2)CC1 | inactive
17 | O=C(COC(=O)c1ccc(CO)cc1)Nc1ccc2ccccc2c1 | inconclusive [activator, partial curve, poor fit]
18 | O=C(NCc1ccccc1Cl)c1ccc(S(=O)(=O)Nc2cccc(C(F)(F)F)c2)cc1 | inactive
19 | CC1CCN(c2nc(/C=C/c3ccccc3)nc3ccccc23)CC1 | inconclusive [activator, single point]
20 | CCOC(=O)c1sc2nc(C)cc(-c3ccccc3)c2c1N | inactive
21 | COc1ccc(OC)c(S(=O)(=O)N2CCN(C(=O)c3cc(C4CC4)nn3-c3ccccc3)CC2)c1 | inactive
22 | Cc1cccc(/C=N/NC(=O)c2cc(C)nc3ccccc23)n1 | inactive
23 | Cc1ccc(-n2nnnc2-c2cnc3ccc(Cl)cc3c2-c2ccccc2)cc1 | inactive
24 | CC(C)CC(=O)NC(=S)Nc1ccc(Cl)cn1 | inconclusive [activator, full curve, poor fit]
25 | C/C(=N\N=C\c1ccccc1F)c1nnn(-c2nonc2N)c1C | inconclusive [activator, full curve]

Row | SMILES | Potency
26 | Nc1c(C(=O)N2CCCCCC2)oc2ccccc12 | inconclusive [activator, partial curve, poor fit]
27 | FC(F)(F)c1ccc(Oc2ccc3ccccc3c2Br)nc1 | inconclusive [activator, partial curve, poor fit]
28 | COc1ccc(CNc2cc(C)nc3ncnn23)c(OC)c1 | inactive
29 | COc1ccc(-c2cc(C(=O)N3CCc4ccccc4C3)no2)cc1 | inactive
30 | CCC(OC(=O)C(NC(=O)c1ccccc1)c1ccccc1)C(=O)Nc1cc(C)on1 (centres undefined) | inactive
31 | COC(=O)c1c(NC(=O)CSc2nnc3ccccn23)sc2c1CCC2 | inactive
32 | O=C(/C=C/c1ccc2ccccc2n1)c1cc(Br)ccc1O | inconclusive [activator, partial curve, poor fit]
33 | Cc1cccc(/C=N\NC(=O)c2csnn2)c1 | inconclusive [activator, full curve, poor fit]
34 | O=C(NCc1ccco1)c1ccc([N+](=O)[O-])o1 | inconclusive [activator, full curve, poor fit]
35 | Cc1ccccc1OCC(=O)OCC(=O)Nc1ccc2c(c1)OCCO2 | inconclusive [activator, partial curve, poor fit]
36 | CCCCC(=O)Nc1nnc(-c2ccco2)o1 | inactive
37 | Cc1ccc(N/C=C2/Sc3ccccc3NC2=O)cc1 | inconclusive [activator, single point]
38 | O=C(COC(=O)c1ccc(O)cc1O)NC12CC3CC(CC(C3)C1)C2 | inconclusive [activator, full curve, poor fit]
39 | O=C(NCc1ccccc1)c1cccc(COc2cc(Cl)ccc2Cl)c1 | inconclusive [activator, full curve, poor fit]
40 | C=CCC[C@H](Cc1ccc(F)cc1)C(=O)O[C@H](CNC(=O)[C@@H](CC=C)CC(=O)N(CCO)Cc1ccccc1)c1ccccc1 | inactive
41 | CC(C)c1nc(N2CCOCC2)c(C#N)c2c1CCCC2 | inactive
42 | CC(=O)Nc1ccc(-c2csc(N/N=C\c3ccncc3)n2)cc1 | inactive
43 | CN1CC(=O)NC1=NC(=O)C12CC3CC(CC(C3)C1)C2 | inconclusive [activator, single point]
44 | Cc1nc(Nc2ccccc2)sc1C(=O)Nc1ccccc1 | inactive
45 | CCOC(=O)NC(=O)CSc1nc(-c2ccc(C)c(C)c2)cn1-c1ccccc1 | inconclusive [activator, full curve, poor fit]
46 | CCn1ccnc1CN1CCc2c([nH]c3ccccc23)C1C(C)(C)C (centres undefined) | inactive
47 | CC(C)(C)c1ccc(C(=O)OCC(=O)NCc2ccco2)cc1 | inconclusive [activator, partial curve, poor fit]
48 | COc1ccc(C2=NN3C(C2)c2ccccc2OC32C(=O)N(C)c3ccccc32)cc1 (centres undefined) | inconclusive [activator, full curve, poor fit]
49 | COC(=O)c1ccccc1NC(=O)Nc1cc(C(C)(C)C)on1 | inconclusive [activator, partial curve, poor fit]
50 | Cc1cc(S(=O)(=O)N2CCOCC2)ccc1OCC(=O)Nc1ccc(F)cc1 | inactive

Row | SMILES | Potency
51 | Cc1ccc(OCC(=O)Nc2cccc(-c3nnc(-c4ccccc4)o3)c2)cc1 | inconclusive [activator, full curve, poor fit]
52 | Cc1cc(N2CCN(C)CC2)nc2ccc(NC(=S)N3CCN(c4ccc(Cl)cc4)CC3)cc12 | inactive
53 | C=CCN(c1ccc(C(=O)Nc2ccc3c(c2)n(C)c(=O)n3C)cc1)S(C)(=O)=O | inactive
54 | Cc1ccccc1OCC(=O)N/N=C/c1ccc(N2CCOCC2)o1 | inactive
55 | COc1ccc(NC(=O)CSCC(=O)Nc2ccc(S(=O)(=O)N3CCCCC3)cc2)cc1 | inactive
56 | Cc1ccc2nc(C)/c(=N\O)c(C)nc2c1 | inconclusive [activator, full curve, poor fit]
57 | NC(=O)c1cccnc1Nc1ccccc1F | inconclusive [activator, partial curve, poor fit]
58 | Cc1cc(C(=O)COc2cccc([N+](=O)[O-])c2)c(C)n1C1CC1 | inconclusive [activator, partial curve, poor fit]
59 | CC(C)Nc1nc(Cl)nc(Nc2ccccc2)n1 | inconclusive [activator, single point]
60 | COC(=O)c1ccsc1NC(=O)CCc1ccccc1 | inconclusive [activator, partial curve, poor fit]
61 | COc1ccc(S(=O)(=O)N(C)c2ccc(C(=O)N3CCOCC3)cc2)cc1 | inactive
62 | COc1cc(-c2noc(C)c2/C=C/c2cccc([N+](=O)[O-])c2)cc(OC)c1OC | inconclusive [activator, partial curve, poor fit]
63 | COc1cc(/C=N/NC(=O)c2ccc3c(c2)OCCO3)cc(Cl)c1O | inconclusive [activator, partial curve, poor fit]
64 | Cc1ccc(/C(N)=N/OC(=O)Cc2ccccc2)cc1 | inconclusive [activator, partial curve, poor fit]
65 | NC1=C(c2ccc(F)cc2)C(=O)CS1 | inconclusive [activator, partial curve, poor fit]
66 | CC1CCc2[nH]c3ccc(C(=O)N(C)CC(=O)Nc4ccccc4Br)cc3c2C1 (centres undefined) | inactive
67 | N#Cc1ccccc1OCC(=O)NC1CCCCC1 | inconclusive [activator, full curve]
68 | COc1cccc(/C=N/Nc2nnc(C)n2N)c1O | inconclusive [activator, full curve, poor fit]
69 | COc1ccc(C(=O)CN2Cc3ccccc3C2=N)cc1 | inconclusive [activator, full curve, poor fit]
70 | COCCn1c(SCC(=O)Nc2ccc(F)cc2)nc2c([nH]c3ccccc32)c1=O | inconclusive [activator, single point]
71 | CCOC(=O)CCNC(C)C1COc2ccccc2O1 (centres undefined) | inactive
72 | O=C(Nc1ncc([N+](=O)[O-])s1)c1ccccc1Br | inactive
73 | CCN1CCCC1CNC(=O)c1cc2c(-c3cccc(OC)c3)nn(C)c2s1 (centres undefined) | inactive
74 | COc1ccc(OC)c(C(=O)COC(=O)c2ccccc2O)c1 | inconclusive [activator, single point]
